± gives the standard deviation of the averaged measurements. Some of the results follow.
tested on: PfAP2-EXP AP2 domain (GST-tagged); experiment: gcPBM binding intensity (ln(normalized median fluorescence intensity)); higher = stronger DNA binding
Summary of the method: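 Binding intensity values are the highest Masliner-normalised natural-log median intensity among replicate spots of either probe orientation. The binding step lasted 1 h in 1× PBS with 1% milk, 0.2 mg/ml BSA, 0.5% salmon testes DNA and 0.03% Triton X-100, using GST-tagged P. falciparum DNA-binding domains expressed in E. coli on an Agilent 4 × 180k array of primer-extended double-stranded 36-bp intergenic genomic probes plus negative controls. Alexa488 anti-GST antibody and a 488 nm scan detected bound protein.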

Sequence	gcPBM binding intensity (ln)
AACATTTTTAAATATATAAAAATATATATATATATA [XGTACX_negctrl_site551]	10.1 ± 0.35
TTTTAAAGCATATCATATAAAGAACATGACATAGGA [CACACA_negctrl_site630]	8.61 ± 0.33
GTATGTTTAATTTTAGTGCAATTATAAATATTTTAA [GTGCAC_site9531]	8.62 ± 0.18
TTATTATTTAACATGTGGACACAAAAATTTAAGGGT [XGTACX_site4638]	8.8 ± 0.26
TTAACTTTTATATAGTGTACAAATAAATGCATACAG [XGTACX_site5958]	8.73 ± 0.3
ATCACTAACATGTGTTGTACATAAAATTTGTTTGTT [XGTACX_site2207]	8.52 ± 0.33
AAAAAACAAAAACACACACACACATATATATATATA [CACACA_site3654]	9.94 ± 0.36
TATTATGTATAAAGAAGTACTTTTTTTTTTTTTTTC [XGTACX_site201]	8.15 ± 0.37
TGAACACAGACAAATACACACAAAAAAAATAAATAA [CACACA_site4298]	8.65 ± 0.53
TCTACTACTTAATGGAGTACTAGCTTCATAATATTA [XGTACX_site7030]	8.13 ± 0.33
TGCAAATTTAACAAAAAAAAAAAAAAAAAAAAAAAA [GTGCAC_negctrl_site64]	7.88 ± 0.45
GATTATTTAAAATATACATGCGCGCACATATGCATA [TGCATGCA_site630]	9.09 ± 0.19
TGCATTTTCCTATTTGCATGCAATTAAAATATAGAA [TGCATGCA_site862]	10.2 ± 0.24
AACATATATACAGTAACACACACAAAAAAATATGAA [CACACA_site9323]	8.87 ± 0.46
ATGTTTTAATGAGGTTTGCACTATATTTTAATGAAC	8.8 ± 0.42
TAGGAGCCGAAACACACACACAAAAAAAAAAAAAAA [CACACA_site1731]	8.05 ± 0.46
CATATATATAAATACACACACACACCCCTTATAATT [CACACA_site4064]	9.3 ± 0.81
TTTTACAATAACAATACACACTATAATATATATATA [CACACA_site4893]	9.53 ± 0.19
AAAAGAATTTGAAGTCGTACAATATCTATTATATGA [XGTACX_site8275]	8.41 ± 0.36
AAAAAAAAATAAAAATGTACATATATAATATTATAT [XGTACX_site71]	8.7 ± 0.45
ATATAATATACTTATTGTACTTATTTAAAATACTAA [XGTACX_site4266]	8.24 ± 0.13
AAAAAATGGCTAGTTTGTACACAAAAGTTATTGCAT [XGTACX_site5381]	8.43 ± 0.33
TTTCTCAATTCTTAGAGTACATAAATAAAAAAAAAA [XGTACX_site7639]	8.35 ± 0.33

Sequence	gcPBM binding intensity (ln)
AAGATAAAATTATGCACACATACGAATAATTTTAAA [CACACA_site1705]	8.52 ± 0.16
GAATATATAAGAACAAATATGGCTTAGAAAAAAAAA [TGCATGCA_negctrl_site451]	8.47 ± 0.57
ATAAAAATGGATGAATATAAAAAAAAAAAAATATAT [CACACA_negctrl_site182]	8.55 ± 0.35
TACAAAAGTTAAACATGTACTTAATTATATGTTTTT [XGTACX_site2852]	8.18 ± 0.34
TCAAGTTTATATTAACTATTTATGAAAAAAAAAAGA [CACACA_negctrl_site902]	8.16 ± 0.41
ATATATTACAAATGGAGTACTAAAAATATTCTATAT [XGTACX_site6669]	8.71 ± 0.36
TATAAGGCAATAATAGTGCACTAAGATATATAATGA	9.04 ± 0.2
TTACACTAAATATGTTCACACATTTTTTCCATCATA [CACACA_site4647]	8.62 ± 0.37
CTAAAAATTTTAATTGCACACCACGTTGGACTATTT [CACACA_site1489]	8.47 ± 0.28
CCCATGCATTTTTGCACACACATATATTTATAAATA [CACACA_site6785]	8.9 ± 0.49
TATATATATGGGTTTACACACAATAATGAATTAAAA [CACACA_site915]	8.36 ± 0.28
CCCACAGACGGACACACACACACATATATATATATA [CACACA_site4352]	10.1 ± 0.34
TTAGAATTTAGAGAAGTGCATATTAAGTTACGAATT [GTGCAC_site9861]	8.68 ± 0.24
AAAAAAAATATATATATTAAAGTTTTAATTTTTATA [CACACA_negctrl_site497]	7.88 ± 0.42
ATTATATATATATATAGTACTTTTTTTTTTTTTTTT [XGTACX_site8801]	8.47 ± 0.23
ATAATAATTTTATGCACACAGAAAAATACAAGGTTA [CACACA_site3510]	8.64 ± 0.26
TTATTGGTTATATAAAGTACATTTGAAATATAATTG [XGTACX_site6553]	8.46 ± 0.54
TTTTCTTGGTATATGATTTATCCTAAATAAGTAAAT [CACACA_negctrl_site294]	8.37 ± 0.45
TTGCCTGACTTGTTCACACATATTTATGATATACAT [CACACA_site5783]	8.73 ± 0.37
AATTTAAAGTTTTTTTTTTTTTTTTTTTTTTTTTTG [CACACA_negctrl_site1082]	7.76 ± 0.56
TGTATTATAATATTATGTACTTATAAATTTTATATT [XGTACX_site6432]	8.56 ± 0.35
ATATTATTATAAAGTGGTACAATAAATGGTATTATA [XGTACX_site391]	8.63 ± 0.23

Reference: the supplement of paper PMC11417369
